Reference: PubChem BioAssay AID1460 (National Center for Advancing Translational Sciences (NCATS), 2008)
The campaign covered roughly 270,000 compounds. About 5,800 (2.1%) were called active. Not shown: some 16% with an inconclusive outcome. Calls come from the whole dose curve; as a rule, active = well fitted inhibition curve with a large enough effect; inconclusive = small, poorly fitted or top-dose-only effect; inactive = flat fitted curve, though single readings scatter. The entries are a selection whose mix differs from that of the whole data set. A structure can be active in one record and inactive in another.

target: Microtubule-associated protein tau (Homo sapiens) (UniProt P10636); test: qHTS for Inhibitors of Tau Fibril Formation, Thioflavin T Binding; conditions: recombinant tau K18 P301L (four-repeat tau fragment), heparin-induced fibrillization, ThT fluorescence; series mostly up to 57.4 µM; activity, negative = inhibition: at the top concentration; note: nearly all actives have a fitted effect of over 55% in size
Sequence of UniProt P10636 (P10636 whole entry, looked up, the tested form may be a part): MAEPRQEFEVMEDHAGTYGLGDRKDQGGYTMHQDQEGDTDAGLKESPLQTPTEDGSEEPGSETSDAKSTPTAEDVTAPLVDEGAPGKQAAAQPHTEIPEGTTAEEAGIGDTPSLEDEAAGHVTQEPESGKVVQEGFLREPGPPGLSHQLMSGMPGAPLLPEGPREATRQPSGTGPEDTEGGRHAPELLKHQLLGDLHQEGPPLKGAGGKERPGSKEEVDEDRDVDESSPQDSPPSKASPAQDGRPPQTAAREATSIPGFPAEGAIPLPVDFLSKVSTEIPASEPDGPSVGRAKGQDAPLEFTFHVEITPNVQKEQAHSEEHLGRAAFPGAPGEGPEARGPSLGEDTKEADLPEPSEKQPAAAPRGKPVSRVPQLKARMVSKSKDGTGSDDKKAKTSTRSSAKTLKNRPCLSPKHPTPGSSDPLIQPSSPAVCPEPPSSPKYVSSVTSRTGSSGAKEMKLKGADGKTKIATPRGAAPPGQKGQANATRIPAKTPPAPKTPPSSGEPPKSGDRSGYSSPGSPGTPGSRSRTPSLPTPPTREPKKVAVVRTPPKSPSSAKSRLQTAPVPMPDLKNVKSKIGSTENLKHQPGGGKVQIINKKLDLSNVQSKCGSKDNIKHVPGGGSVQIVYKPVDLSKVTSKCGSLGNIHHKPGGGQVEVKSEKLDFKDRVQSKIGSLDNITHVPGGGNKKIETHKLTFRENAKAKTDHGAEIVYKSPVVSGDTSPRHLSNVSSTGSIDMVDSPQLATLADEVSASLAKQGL
Outline: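 K18 P301L tau (15 uM + 0.24 uM Alexa 594-tagged), heparin 20 uM, NaOAc pH 7, 6 h 37 C; ThT 30 uM, 1 h RT, ex 450/em 510 nm.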
% is set by controls: 0 for no effect and ±100 for the full control effect; potency is the fitted concentration of half-maximal effect.

Potency, active:
Cc1cc(N2CCCC2)ccc1/C=N/n1cnnc1 7.08 µM, CCc1nc(-c2cc(S(=O)(=O)N3CCN(c4ccc(OC)cc4)CC3)ccc2OC)no1 28.2 µM, COc1cc(NCCCC(C)N)c2ncccc2c1 (configuration not stated) 25.1 µM, CN1CCc2c(sc3c2C(=O)NC(c2cn(Cc4ccccc4)c4ccccc24)N3)C1 (configuration not stated) 17.8 µM, CCN(CC)c1ccc(/C=C/C(=O)C2C(=O)C=C(C)OC2=O)cc1 (configuration not stated) 3.16 µM, CC(C)c1ccc(C2CC(=O)N3CN(C4CCCCC4)CSC3=C2C#N)cc1 (configuration not stated) 22.4 µM, O=C(/C=C/NNC(=O)c1ccccc1)c1ccc(Br)cc1 25.1 µM, CCc1ccc2c(Cl)c(C(=O)N/N=C/c3c[nH]c4ccccc34)sc2c1 10 µM, Cc1cc(=O)n2[nH]c(=O)c(N=Nc3ccccc3)c2[nH]1 14.1 µM, O=C(O)c1ccccc1Nc1ccc([N+](=O)[O-])cc1 10 µM, O=C(O)CCCN1C(=O)/C(=C\c2ccc(-c3nc4ccccc4s3)o2)SC1=S 2.51 µM, N#C/C(=C/c1ccc2c(c1)OCO2)C(=O)NCCc1c[nH]c2ccccc12 12.6 µM, O=C1/C(=C\c2ccco2)CCC/C1=C\c1ccco1 17.8 µM, O=C(N/N=C/c1ccc(Cl)cc1)c1nc2ccc([N+](=O)[O-])cc2c(=O)[nH]1 15.8 µM, CCCn1c(O)c(N=Nc2ccc3ccccc3n2)c2ccccc21 12.6 µM, CN=c1scc(-c2cccs2)n1/N=C/c1ccc(O)c(O)c1O 12.6 µM, O=C1CSC(=S)N1Cc1cccnc1 31.6 µM, Cc1cc(N2CCN(C)CC2)nc2ccc(NC(=O)Nc3cccc(Cl)c3)cc12 14.1 µM, COC(=O)c1[nH]c2ccc(Br)cc2c1NC(=O)Oc1ccccc1 15.8 µM, COC(=O)CCC(=O)OC1(C)C(=O)C2=CN(CCCOC(C)C)C(c3ccc(OC)cc3)=CC2=C(Br)C1=O (configuration not stated) 15.8 µM, COC(=O)c1c(-c2cccs2)csc1NC(=O)c1cc(OC)c(OC)c(OC)c1 11.2 µM, CCN(c1ccccc1)S(=O)(=O)c1nnc(NC(=O)c2ccccc2OC)s1 3.16 µM, COc1ccc2nc(N3C(=O)/C(=C/c4ccc(Cl)cc4)NC3=S)sc2c1 1.12 µM, COc1ccc(Nc2nc3ccc(OC)cc3s2)cc1 12.6 µM, Oc1ccc(/C(Cc2ccc3ccccc3n2)=N\Nc2ccccc2)c(O)c1 11.2 µM

Potency, inactive:
C[C@@H](C(=O)NCC1CC1)[C@@H]1C[C@@]1(C)[C@@H](NC(=O)OCc1ccccc1)c1ccccc1, CC[C@H](C)[C@@H](NC(=O)O[C@@H]1C(=O)c2cc(OC)ccc2O[C@H]1c1ccc(OC)c(Br)c1)C(=O)OC, CC(CN1c2ccccc2Sc2ccccc21)N(C)C (configuration not stated), COC(=O)c1ccc(CN2[C@H](C(=O)OC)C[C@@]3(O)[C@@H](O)[C@@H](O)[C@@H](O)C[C@@H]23)cc1, O=C1c2ccccc2-c2n[nH]c3cccc1c23, C[C@H]1c2cccc(O)c2C(O)=C2C(=O)[C@]3(O)C(O)=C(C(N)=O)C(=O)[C@@H](N(C)C)[C@@H]3[C@@H](O)[C@@H]21, CC(C)=CCC/C(C)=C/COc1ccc2ccc(=O)oc2c1, C#CCCCCCCCCCCCCCCCC(=O)O

activity, negative = inhibition, inactive:
NC(=O)C1=C[C@H](c2ccc(Br)cc2)C[C@H](OCc2ccc(CO)cc2)O1 -7.97%, COc1ccc(NC2=CC(c3ccccc3)N(c3ccc(OC)cc3)C2=O)cc1 (configuration not stated) -13.7%, O=C1NC[C@@H](Cc2ccc(O)cc2)N(CCc2cccc3ccccc23)C1=O -2.84%, Nc1ccccc1C#Cc1ccccc1 -17.9%, CCCCC1=CC2=CC(=O)C(C)(OC(=O)CCc3ccccc3)C(=O)C2=CO1 (configuration not stated) -6.13%, CCOC(=O)/C(C#N)=C\c1ccc(N2CCN(C)CC2)cc1 -19.2%, CCOC(=O)CNC(=O)O[C@H]1C(=O)c2ccc(OC)cc2O[C@@H]1c1ccc2c(c1)OCO2 -18.6%, c1ccc(-c2nnc(CN3CCN(c4ccccc4)CC3)o2)cc1 -4.53%, Cc1cccc(/C=C\c2nc3ccccc3c(=O)[nH]2)c1 -14.8%, Cc1nn(Cc2ccc(Cl)cc2)c(C)c1NC(=O)c1noc2c1CCc1ccccc1-2 -9.74%, COC(=O)c1cccc(-n2c(CCC(=O)O)ccc2-c2cccs2)c1 -10.5%, CC(=O)n1cc([C@@H]2C=C(C(=O)N3CCOCC3)O[C@H](OCc3ccc(CO)cc3)C2)c2ccccc21 -11.2%, COc1cccc(NC(=O)CSc2c3c(nc4ccccc24)CCCC3)c1 2.32%, O=C1OC(c2ccccc2)=C/C1=C/N1CCOCC1 -16.1%, Nn1nnc2ccccc21 -3.43%, C[C@H](NC(=O)/C(C#N)=C/c1ccc(O)c(O)c1)c1ccccc1 -7.49%, CCCCC1=CC2=C(c3ccco3)C(=O)C(C)(OC(=O)c3ccc(OC)cc3)C(=O)C2=CN1CCCN(CC)CC (configuration not stated) -10.1% [at 11.5 µM], CCOc1nc(NC(=O)NS(=O)(=O)Oc2cccc(Cl)c2)nc(-c2ccccc2)n1 -5.32%, C#CCNC(=O)C1=C[C@@H](C2CCCCC2)C[C@@H](OCc2ccc(CO)cc2)O1 -9.28%, C=CCNC1=C2C[C@@H](C)C[C@H](OC)[C@H](O)[C@@H](C)/C=C(\C)[C@H](OC(N)=O)[C@@H](OC)/C=C/C=C(\C)C(=O)NC(=CC1=O)C2=O -23.9% [at 11.5 µM], COc1ccc(N2CCN(C(=O)Nc3ccccc3Cl)CC2)cc1 -19.4%, CCCC(=O)n1nc(-c2cccnc2)nc1NCc1ccccc1 -12.9%, COc1cc2ccc(=O)oc2c(O)c1OCC=C(C)C -0.817%, CC(C)c1nc(CN(C)C(=O)N[C@H](C(=O)N[C@@H](Cc2ccccc2)C[C@H](O)[C@H](Cc2ccccc2)NC(=O)OCc2cncs2)C(C)C)cs1 -14.2%, COC(=O)[C@@]1(Cc2ccc(OC)cc2)[C@H]2c3cc(C(=O)N4CCCC4)n(CCc4c[nH]c5ccc(O)cc45)c3C[C@H]2CN1C(=O)c1ccccc1 -10.5%, CC(C)OC(=O)/C(=C/c1ccc2c(c1)c1ccccc1n2C)NC(=O)c1ccccc1 -9.67%, COc1ccc(-c2ccc(CCC(=O)O)n2-c2ccccc2O)cc1 -19.6%, COc1cccc(-c2cc(=O)c3cc(NC(=O)c4ccc(Cl)cc4)ccc3[nH]2)c1 -17.7% [at 81.4 µM], OCc1ccc(-c2nn(Cc3ccccc3)c3ccccc23)o1 -15.9%, CO/N=C(\C(=O)N[C@@H]1C(=O)N2C(C(=O)O)=C(COC(C)=O)CS[C@H]12)c1csc(N)n1 (stereo in doubt) -3.88%, Cc1ccccc1Nc1c(-c2ccc(N3CCOCC3)cc2)nc2ncccn12 -23%, CC1(OC(=O)CCc2ccccc2)C(=O)C=C2C=C(c3ccc(C#N)cc3)N(Cc3ccccc3)C=C2C1=O (configuration not stated) -5.38% [at 11.5 µM], CCCCCCCC#Cc1ccccc1/C=N/S(=O)c1ccc(C)cc1 (configuration not stated) -19.9% [at 11.5 µM], O=C(C1=C[C@H](c2ccc(Br)cc2)C[C@H](OCCCCO)O1)N1CCN(Cc2ccc3c(c2)OCO3)CC1 -14.3%, COC(=O)CCCC1=CC2=C(c3ccccc3)C(=O)C(C)(OC(=O)C3CCCC3)C(=O)C2=CN1C1CC1 (configuration not stated) 1.34% [at 11.5 µM], Cc1occc1C(=O)N/N=C/C=C\c1ccccc1[N+](=O)[O-] -18%, O=C(O)/C(=C\c1ccco1)NC(=O)c1ccccc1 2.1%, COC(=O)C1=C(C)N(Cc2ccccc2)C2=C(C(C)=O)C(c3ccccc3)[C@@](O)(C(=O)OC)C(=O)N2C1c1ccccc1 (some centres not stated) -4.85% [at 11.5 µM], COC(=O)CCCC1=CC2=CC(=O)C(C)(OC(=O)c3cccs3)C(=O)C2=CN1Cc1ccc2c(c1)OCO2 (configuration not stated) -15.3% [at 11.5 µM], Fc1ccc(Nc2c(-c3ccco3)nc3ccccn23)cc1 3.32%, CC1CCN(C(=O)C(C)Sc2nc(-c3ccccc3)cc(C(F)(F)F)n2)CC1 (configuration not stated) -14.1%, C[C@@H]1CC[C@]2(C(=O)O)CC[C@]3(C)C(=CCC4[C@@]5(C)C[C@@H](O)[C@H](O)[C@@](C)(CO)C5CC[C@]43C)C2[C@H]1C (some centres not stated) -15.6%, COc1ccc(C(C)n2c(C)c3c(C)nnc(C)c3c2C)cc1 (configuration not stated) -10.5%, COC(=O)[C@@]1(Cc2ccc(F)cc2)[C@H]2c3cc(C(=O)N(C)C)n(Cc4ccccn4)c3C[C@H]2CN1C(=O)c1ccccc1 -8.21%, O=C(N/N=C/C(Cl)=C\c1ccccc1)c1cnccn1 -7.23%, O=C(C1=C[C@H](c2ccccc2)C[C@H](OCc2ccc(CO)cc2)O1)N1CCCCCCC1 -16.2%, CO[C@@]12C[C@@H](COC(=O)c3cncc(Br)c3)CN(C)[C@H]1Cc1cn(C)c3cccc2c13 -19.7%, CCO[C@H]1OC(C(=O)Nc2ccccc2)=C[C@@H](c2coc3ccccc3c2=O)[C@@H]1CCCO -15.9%, C=CC[C@H]1Cc2c(cccc2[N+](=O)[O-])[C@H](CC=C)N1 -3.34%, CC(C)C1=CC2=CC[C@H]3[C@](C)(C(=O)O)CCC[C@]3(C)C2CC1 (some centres not stated) -15.8%, C=CCN1c2ccccc2[C@]23C[C@@H](C(=O)OC)N(C(=O)CC(C)C)C2=NC(C(=O)OC)=C(C(=O)OC)[C@H]13 0.924% [at 11.5 µM], CCCCC1=CC2=CC(=O)C(C)(OC(=O)CC)C(=O)C2=CN1Cc1ccc2c(c1)OCO2 (configuration not stated) -7.24% [at 11.5 µM], CC(C)(S)[C@H](N)C(=O)O -0.594%, O=C1c2ccccc2CCC1CNCCc1ccc(O)cc1 (configuration not stated) -16.3%
